This is an account of results in PubChem BioAssay (EPA / NIEHS).

Read-out in experiment [1]: serum amyloid A (SAA), SAA1 (gene 6288)
The experiment in a line: BSK_CASM3C_SAA: BioMAP Diversity Plus: CASM3C Assay for serum amyloid A (SAA) Biomarker Activity (AID 2283049).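 Note: SAA protein level quantified by ELISA.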 The conditions noted are these: actives raise or lower the signal; primary human coronary artery smooth muscle cells.

Read-out in experiment [2]: Macrophage colony-stimulating factor (MCSF), CSF1 (gene 1435)
The experiment in a line: BSK_hDFCGF_MCSF: BioMAP Diversity Plus: hDFCGF Assay for Macrophage colony-stimulating factor (MCSF) Biomarker Activity (AID 2283060). The note with it: actives raise or lower the signal; primary human foreskin fibroblasts. Put shortly:
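Primary human foreskin fibroblasts dosed with chemical; 24 h later, M-CSF quantified by ELISA; curves fitted in both directions vs DMSO negative control.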

Read-out in experiment [3]: Interferon-gamma inducible Protein 10 (IP10), CXCL10 (gene 3627)
The experiment in a line: BSK_KF3CT_IP10: BioMAP Diversity Plus: KF3CT Assay for Interferon-gamma inducible Protein 10 (IP10) Biomarker Activity (AID 2283068). The note with it: actives raise or lower the signal; primary human keratinocytes with fibroblasts. Put shortly:
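ELISA read-out of IP-10 after 24 h chemical dosing of human skin primary co-culture (keratinocytes, foreskin fibroblasts). Gain or loss of signal relative to DMSO, bidirectional curve fit.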

Read-out in experiment [4]: MicroRNA 122 (MIR122), gene 406906
The experiment in a line: LTEA_HepaRG_MIR122: Life Technologies and Expression Analysis (LTEA) Assay for MicroRNA 122 (MIR122) using HepaRG (AID 2283516). Note: the transcript read is the microRNA miR-122. The conditions noted are these: actives raise or lower the signal; mRNA level, 48 h. Put shortly: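 Changes in transcript abundance, up or down relative to 0.5% DMSO vehicle, were scored after 48 h chemical treatment of HepaRG cells (maximum 100 uM). Quantification used TaqMan qRT-PCR normalized to housekeeping genes.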

Experiment [5] concerns zebrafish Estrogen Receptor (ESR2A), gene 317734. Briefly: ATG_zfER2a_XSP1: Attagene TRANS-FACTORIAL Multi-Species (XSP1) HepG2 Assay for zebrafish Estrogen Receptor (ESR2A) (AID 2283778; active = hit-call score of the fitted dose curve at least 0.9, where 1 is the maximum). Put shortly:
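Reporter transcripts were quantified by RT-PCR, 6-FAM labelling, HpaI digestion and capillary electrophoresis after 24 h dosing. The cells were HepG2 transiently carrying a zebrafish ER2a–Gal4 construct plus multiplexed UAS reporters; medium contained 3 nM 6-alpha-fluorotestosterone.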

The target in experiment [6] is chicken Estrogen Receptor (ERa), ESR1 (gene 396099) (UniProt P06212). The experiment in a line: ATG_chERa_XSP2: Attagene TRANS-FACTORIAL Multi-Species (XSP2) HepG2 Assay for chicken Estrogen Receptor (ERa) (AID 2283817; active = hit-call score of the fitted dose curve at least 0.9, where 1 is the maximum;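 note: actives raise reporter signal above DMSO so AC50 reflects ER activation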). The method, boiled down:
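Reporter mRNA induction read by RT-PCR, fluorescent labelling and capillary electrophoresis after 24 h exposure; positive-direction fit against DMSO baseline. HepG2 cells transfected with multiplexed GAL4-UAS units including chicken ERa chimera; medium contained 3 nM 6-alpha-fluorotestosterone plus 1.5 nM norgestrel.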

Read-out in experiment [7]: Tissue plasminogen activator (tPA), PLAT (gene 5327)
The experiment in a line: BSK_BE3C_tPA: BioMAP Diversity Plus: BE3C Assay for Tissue plasminogen activator (tPA) Biomarker Activity (AID 2283041).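 For outcome: tPA level quantified by ELISA one day after compound addition.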 The conditions noted are these: actives raise or lower the signal; primary human bronchial epithelial cells. The method, boiled down: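 Using human lung primary bronchial epithelial cells, tPA was measured by ELISA 24 h after dosing; data fitted relative to DMSO.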

Read-out in experiment [8]: Transforming growth factor beta 1 (TGFb1), TGFB1 (gene 7040)
The experiment in a line: BSK_KF3CT_TGFb1: BioMAP Diversity Plus: KF3CT Assay for Transforming growth factor beta 1 (TGFb1) Biomarker Activity (AID 2283072). The note with it: actives raise or lower the signal; primary human keratinocytes with fibroblasts. Put shortly:
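TGF-b1 ELISA on a 24 h dosed co-culture of human keratinocytes and foreskin fibroblasts; cytotoxicity tracked in parallel cultures by SRB staining.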

The target in experiment [9] is bovine Gamma-Aminobutyric Acid Type A Receptor Agonist (GABAR Agonist), GABRA1 (gene 780973) (UniProt P08219). Briefly: NVS_LGIC_bGABAR_Agonist: NovaScreen (NVS) Ligand-Gated Ion Channel Assay for bovine Gamma-Aminobutyric Acid Type A Receptor Agonist (GABAR Agonist) (AID 2283338; active = hit-call score of the fitted dose curve at least 0.9, where 1 is the maximum).
Read-out in experiment [10]: Bcl-2 (BAD) gene, BAD (gene 572)
The experiment in a line: LTEA_HepaRG_BAD: Life Technologies and Expression Analysis (LTEA) Assay for Bcl-2 (BAD) gene using HepaRG (AID 2283469). The conditions noted are these: actives raise or lower the signal; mRNA level, 48 h. The method, boiled down:
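Read-out: qRT-PCR of BAD mRNA, normalized to three housekeeping genes. Human HepaRG cultures got 48 h chemical exposure in 0.5% DMSO, duplicate eight-point half-log series topping at 100 uM. Gain or loss of signal fitted versus DMSO vehicle.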

A short description of experiment [11]: CCTE_Shafer_MEA_acute_cross_correlation_area: CCTE's Neural Acute Assay for Area of Cross Correlation, Shafer Lab (AID 2284024). Put shortly: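 Plates equilibrated 20 min at 37 C, then 40 min baseline was recorded, compound was added (0.03-40 uM), and a further 40 min was recorded. Wells needed ≥10 active electrodes (≥5 spikes/min) on exposure day.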
Read-out in experiment [12]: Low-density lipoprotein receptor (LDLR), LDLR (gene 3949)
Briefly: BSK_CASM3C_LDLR: BioMAP Diversity Plus: CASM3C Assay for Low-density lipoprotein receptor (LDLR) Biomarker Activity (AID 2283045).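 Note: LDLR protein level on the cell surface quantified by ELISA.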 The note with it: actives raise or lower the signal; primary human coronary artery smooth muscle cells.

Read-out in experiment [13]: Interleukin-6 (IL6), IL6 (gene 3569)
The experiment in a line: BSK_CASM3C_IL6: BioMAP Diversity Plus: CASM3C Assay for Interleukin-6 (IL6) Biomarker Activity for (AID 2283040). The note with it: actives raise or lower the signal; primary human coronary artery smooth muscle cells.

Read-out in experiment [14]: Vascular cell adhesion molecule 1 (VCAM1), VCAM1 (gene 7412)
Briefly: BSK_hDFCGF_VCAM1: BioMAP Diversity Plus: hDFCGF Assay for Vascular cell adhesion molecule 1 (VCAM1) Biomarker Activity (AID 2283065). The conditions noted are these: actives raise or lower the signal; primary human foreskin fibroblasts. Put shortly: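 Human foreskin fibroblast primary cells, chemical exposure 24 h; VCAM-1 by ELISA; bidirectional fit, DMSO = negative control/baseline.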

The nature of experiment [15]: BSK_hDFCGF_SRB: Viability Assessment in the BioMAP Diversity Plus: hDFCGF Assay (AID 2283061).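 Note: cells exposed to compound for 24 h before the read.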 The note with it: primary human foreskin fibroblasts. The method, boiled down:
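Readout is SRB absorbance at 560 nm, reflecting total protein in parallel cultures of human foreskin fibroblasts harvested 24 h after chemical dosing. Activity was fitted bidirectionally relative to DMSO.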

Experiment [16] has as its target Estrogen receptor (Homo sapiens) (UniProt P03372). Briefly: OT_ERa_GFPERaERE_0480: Odyssey Thera (OT) 8-hour HeLa Transcription Induction Assay for Estrogen Receptor (AID 2283381). The method, boiled down: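 An 8 h HeLa transcription-induction format with a GFP reporter under ERE control, read by fluorescence microscopy; single endpoint fitted positively with DMSO as baseline.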

Read-out in experiment [17]: Fatty Acid-Binding Protein 1 (FABP1), FABP1 (gene 2168)
The experiment in a line: LTEA_HepaRG_FABP1: Life Technologies and Expression Analysis (LTEA) Assay for Fatty Acid-Binding Protein 1 (FABP1) using HepaRG (AID 2283494). The note with it: actives raise or lower the signal; mRNA level, 48 h. Put shortly: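 FABP1 expression by TaqMan qRT-PCR, normalised to three housekeeping genes, in HepaRG cells after 48 h chemical treatment. Eight-point half-log series topping at 100 uM in 0.5% DMSO, duplicates; gain or loss fitted relative to vehicle.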

Read-out in experiment [18]: Intercellular Adhesion Molecule 1 (ICAM1), ICAM1 (gene 3383)
Briefly: LTEA_HepaRG_ICAM1: Life Technologies and Expression Analysis (LTEA) Assay for Intercellular Adhesion Molecule 1 (ICAM1) using HepaRG (AID 2283507). The note with it: actives raise or lower the signal; mRNA level, 48 h. Put shortly:
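Readout is qRT-PCR mRNA level, normalized to three housekeeping genes and fitted bidirectionally against 0.5% DMSO vehicle. Human HepaRG cultures received compound for 48 h, top concentration 100 uM with half-log dilutions.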

Read-out in experiment [19]: Insulin-like growth factor-binding protein 1 (IGFBP1), IGFBP1 (gene 3484)
The experiment in a line: LTEA_HepaRG_IGFBP1: Life Technologies and Expression Analysis (LTEA) Assay for Insulin-like growth factor-binding protein 1 (IGFBP1) using HepaRG (AID 2283508). The conditions noted are these: actives raise or lower the signal; mRNA level, 48 h. The method, boiled down: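 Thawed HepaRG cells are plated for 48 h, switched to serum-free induction medium, then dosed in duplicate for another 48 h (100 uM top, half-log steps). Lysates in RLT go to qRT-PCR, and gain or loss of signal is fitted relative to vehicle.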

Read-out in experiment [20]: solute carrier (SLCO1B1), SLCO1B1 (gene 10599)
The experiment in a line: LTEA_HepaRG_SLCO1B1: Life Technologies and Expression Analysis (LTEA) Assay for solute carrier (SLCO1B1) using HepaRG (AID 2283530). The conditions noted are these: actives raise or lower the signal; mRNA level, 48 h. The method, boiled down:
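HepaRG, serum-free induction medium, 48 h dosing, 8-pt half-log from 100 uM, 0.5% DMSO vehicle, duplicates. Readout: SLCO1B1 mRNA, qRT-PCR, ACTB/GAPDH/POLR2A normalization; up or down fit vs DMSO.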

Experiment [21] in a line: TOX21_TRB_BLA_Agonist_Followup_viability: Viability Assessment in the Tox21 Thyroid Hormone Receptor beta Agonism Beta-lactamase (BLA) Follow-Up Assay (AID 2283956; active = hit-call score of the fitted dose curve at least 0.9, where 1 is the maximum). The method, boiled down: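 Viability was read as CellTiter-Glo luminescence in the same wells as the TRb-bla agonist read-out. HEK293T GAL4-TRb LBD cells were treated for 18 h (37C, 5% CO2) at 11 concentrations in triplicate. Fits were bidirectional versus DMSO baseline.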

Read-out in experiment [22]: Macrophage colony-stimulating factor (MCSF), CSF1 (gene 1435)
The experiment in a line: BSK_LPS_MCSF: BioMAP Diversity Plus: LPS Assay for Macrophage colony-stimulating factor (MCSF) Biomarker Activity (AID 2283083). The note with it: actives raise or lower the signal; primary human HUVEC with PBMC. The method, boiled down:
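ELISA readout of M-CSF after 24 h compound exposure in a human endothelial/PBMC co-culture. Activity, in either direction, is fitted relative to DMSO vehicle.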

For some of these results: What follows is the remainder of the data, with few or none of the hits. The entries are a selection whose mix differs from that of the whole data set. Results filed as inconclusive are left out. Calls of active or inactive are those of the source. Rule for the calls, unless noted: active = hit-call score of the fitted dose curve at least 0.9, where 1 is the maximum; inactive = score below 0.9.

UniProt P03372, sequence (P03372 whole entry, looked up): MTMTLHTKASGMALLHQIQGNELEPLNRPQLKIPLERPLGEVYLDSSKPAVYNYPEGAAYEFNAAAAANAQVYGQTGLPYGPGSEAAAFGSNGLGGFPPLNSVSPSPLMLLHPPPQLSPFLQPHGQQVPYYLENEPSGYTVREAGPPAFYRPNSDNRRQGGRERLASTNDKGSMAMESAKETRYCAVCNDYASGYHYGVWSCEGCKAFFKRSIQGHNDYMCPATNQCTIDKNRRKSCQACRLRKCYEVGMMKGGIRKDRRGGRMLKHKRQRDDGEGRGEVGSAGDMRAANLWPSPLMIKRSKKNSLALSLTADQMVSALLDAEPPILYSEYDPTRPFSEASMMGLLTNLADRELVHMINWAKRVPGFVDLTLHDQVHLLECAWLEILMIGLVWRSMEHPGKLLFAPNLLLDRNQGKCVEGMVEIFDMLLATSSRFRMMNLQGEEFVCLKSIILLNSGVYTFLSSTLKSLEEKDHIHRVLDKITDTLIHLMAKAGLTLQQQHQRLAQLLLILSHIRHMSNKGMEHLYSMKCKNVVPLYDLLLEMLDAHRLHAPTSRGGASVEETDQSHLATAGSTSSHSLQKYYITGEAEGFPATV
UniProt P08219, sequence (P08219 whole entry, looked up): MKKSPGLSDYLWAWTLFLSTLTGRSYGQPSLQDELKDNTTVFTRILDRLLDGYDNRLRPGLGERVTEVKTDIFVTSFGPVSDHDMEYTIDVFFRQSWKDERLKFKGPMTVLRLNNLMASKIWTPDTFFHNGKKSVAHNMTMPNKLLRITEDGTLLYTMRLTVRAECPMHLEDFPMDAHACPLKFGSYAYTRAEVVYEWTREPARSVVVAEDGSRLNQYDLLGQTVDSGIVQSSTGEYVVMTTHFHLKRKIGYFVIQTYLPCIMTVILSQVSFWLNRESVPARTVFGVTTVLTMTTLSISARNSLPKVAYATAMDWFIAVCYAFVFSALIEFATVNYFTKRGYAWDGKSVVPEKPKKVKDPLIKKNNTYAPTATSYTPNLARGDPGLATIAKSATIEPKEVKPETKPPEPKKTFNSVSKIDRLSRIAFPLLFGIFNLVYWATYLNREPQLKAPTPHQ
UniProt P06212, sequence (P06212 whole entry, looked up, the tested form may be a part): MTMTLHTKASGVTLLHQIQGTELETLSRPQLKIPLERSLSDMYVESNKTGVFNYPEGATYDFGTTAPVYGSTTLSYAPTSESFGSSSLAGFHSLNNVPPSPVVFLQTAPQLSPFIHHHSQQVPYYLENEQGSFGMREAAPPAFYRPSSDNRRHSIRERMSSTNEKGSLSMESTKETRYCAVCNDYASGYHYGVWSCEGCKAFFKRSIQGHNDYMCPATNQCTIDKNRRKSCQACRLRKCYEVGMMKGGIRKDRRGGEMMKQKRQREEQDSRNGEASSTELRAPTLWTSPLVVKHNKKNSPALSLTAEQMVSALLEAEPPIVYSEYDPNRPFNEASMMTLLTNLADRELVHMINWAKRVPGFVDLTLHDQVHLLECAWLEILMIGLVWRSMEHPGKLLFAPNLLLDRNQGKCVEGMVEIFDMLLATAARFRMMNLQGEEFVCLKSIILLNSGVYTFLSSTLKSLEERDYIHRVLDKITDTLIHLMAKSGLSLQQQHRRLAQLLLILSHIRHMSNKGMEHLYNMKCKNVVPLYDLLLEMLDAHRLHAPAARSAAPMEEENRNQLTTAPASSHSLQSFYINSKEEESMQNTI

The AC50 is the midpoint of the concentration-response curve, whichever way the signal moves. For the compound `CC(=O)O[C@]1(C(C)=O)CC[C@H]2[C@@H]3C=C(Cl)C4=CC(=O)[C@@H]5C[C@@H]5[C@]4(C)[C@H]3CC[C@@]21C`, the result in experiment [1], in experiment [2], in experiment [3] and in experiment [6] was inactive. The AC50 is active: 50 µM in [4] and active: 26.4 µM in experiment [5].
For `CC(=O)Nc1ccc(C(=O)CCl)cc1`, the result in experiment [7] and in [8] was inactive.
As to `CN(C)c1ccc(C(=C2C=CC(=[N+](C)C)C=C2)c2ccc(N(C)C)cc2)cc1`, the AC50 in [7] is active: 1.19 µM; in [9], active: 4.96 µM; in experiment [11], active: 0.298 µM. The result in experiment [10] was inactive.
In the case of `c1ccc2c(c1)c1cccc3ccc4cccc2c4c31`, the result in experiment [12] was inactive.
On to `Cc1cc(CCN2CCN(c3nsc4ccccc34)CC2)cc2c1NC(=O)CC2(C)C`, for which, in experiment [13], the AC50 was active: 32.7 µM.
Take `O=Cc1ccccc1C=O`: the outcome in experiment [13] was inactive.
Consider `CCOCCO`, for which the outcome in experiment [14] was inactive.
For the compound `Cn1c(=O)c2[nH]cnc2n(C)c1=O`, the outcome in experiment [15], in [16], in experiment [17], in [18], in [19] and in experiment [20] was inactive. Besides, the result in experiment [21] was inactive.
In the case of `Cc1cc(Cc2ccc(N)c(C)c2)ccc1N`, the result in experiment [1] and in experiment [22] was inactive.
